The supplement of paper PMC3334620
Over roughly 33,000 sequences, “E-score (-0.5 to 0.5)” has its median near -0.011; the highest 2% begin near 0.28. The list shows a part of the results.

Target: T1, Gcr1 (UniProt P07261)
T1 sequence: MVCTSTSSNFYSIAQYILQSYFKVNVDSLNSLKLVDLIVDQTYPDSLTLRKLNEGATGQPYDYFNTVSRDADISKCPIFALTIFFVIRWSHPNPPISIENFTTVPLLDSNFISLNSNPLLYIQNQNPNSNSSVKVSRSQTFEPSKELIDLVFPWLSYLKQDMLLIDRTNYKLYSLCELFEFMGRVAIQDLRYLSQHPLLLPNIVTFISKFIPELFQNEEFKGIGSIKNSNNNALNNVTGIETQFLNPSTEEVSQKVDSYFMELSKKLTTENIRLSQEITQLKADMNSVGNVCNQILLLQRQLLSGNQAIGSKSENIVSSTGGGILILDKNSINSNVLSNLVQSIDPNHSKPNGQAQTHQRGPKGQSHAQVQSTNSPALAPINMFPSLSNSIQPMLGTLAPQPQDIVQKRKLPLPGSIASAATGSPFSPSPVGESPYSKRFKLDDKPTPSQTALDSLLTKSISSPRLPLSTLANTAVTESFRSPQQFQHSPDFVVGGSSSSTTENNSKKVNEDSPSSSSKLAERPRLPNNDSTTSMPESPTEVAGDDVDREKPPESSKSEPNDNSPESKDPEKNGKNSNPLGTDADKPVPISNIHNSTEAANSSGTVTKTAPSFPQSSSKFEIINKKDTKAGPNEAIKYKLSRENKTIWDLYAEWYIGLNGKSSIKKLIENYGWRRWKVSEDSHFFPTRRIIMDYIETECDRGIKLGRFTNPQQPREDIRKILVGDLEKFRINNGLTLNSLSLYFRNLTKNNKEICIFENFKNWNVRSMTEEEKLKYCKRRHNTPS
Assay: PBM E-score (8-mer binding enrichment) (E-score (-0.5 to 0.5)); higher = stronger / more preferred TF binding; most listed sequences are background and not binding sites
Conditions: protein concentration: 100 nM; construct: GST-full length
Procedure, shortened: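 E-scores (a modified Wilcoxon-Mann-Whitney statistic) were assigned by the Universal PBM Analysis Suite to every ungapped eight-base word pooled with its reverse complement. The input came from universal all-10-mer Agilent arrays made double-stranded by primer extension and probed with GST-tagged yeast transcription factors at about 100-200 nM. Fluorescent anti-GST detected bound protein, and masliner normalised the scans.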

| Sequence | PBM E-score |
| --- | --- |
| GTCCCCCA | 0.137 |
| CCTAAGAA | 0.00789 |
| ATATTCAA | 0.105 |
| GGACAAGA | 0.113 |
| ACCGGATC | 0.0302 |
| CCACGTAA | -0.0111 |
| GCAATGCC | -0.0883 |
| ATCCGTAC | -0.0926 |
| ACATGCAA | -0.0301 |
| AGGCGGTC | 0.00267 |
| CCTCGCGA | -0.235 |
| CGATGAAC | -0.046 |
| ACAAGTGG | 0.201 |
| GGACCACC | 0.0412 |
| GGCCCACA | 0.085 |
| CCTGTTTA | 0.203 |
| CACGTGGC | -0.125 |
| CGAGTAAG | -0.00561 |
| GACAATCA | -0.149 |
| CTTAAACC | 0.00401 |
| CTGAAACA | 0.154 |
| ATGGTAGA | -0.104 |

| Sequence | PBM E-score |
| --- | --- |
| AACACGGT | -0.0988 |
| GAGGAGGC | 0.0109 |
| AGCTAGCT | -0.233 |
| AGTATTTA | 0.101 |
| GCGATGAA | 0.0618 |
| AGCTAGTA | 0.188 |
| CTTCAAAC | 0.101 |
| AGGATACG | 0.0713 |
| AGAAATAC | 0.13 |
| GGAACATA | -0.122 |
| CTAACGGA | 0.032 |
| CTTTCTTC | -0.102 |
| CGATGTAG | -0.0576 |
| AACAAATT | 0.0331 |
| GAATGAGA | -0.0237 |
| AGCATGGG | -0.105 |
| GAAAAGTA | 0.0278 |
| AGTGAGCG | -0.228 |
| GTAAATAC | 0.0283 |
| AAGCAAGC | -0.116 |
| GGAGTGCA | 0.00026 |
| TTGCGAAA | 0.129 |

| Sequence | PBM E-score |
| --- | --- |
| AAGTTTCC | -0.0273 |
| AATGTGCA | 0.0217 |
| AGTGTAGC | 0.147 |
| GCCTGCAA | -0.187 |
| AAGGGGTG | -0.0311 |
| ACTTCGAT | 0.0644 |
| CGCTACTC | -0.00841 |
| CTAGAGGA | 0.0502 |
| GTAGTCAC | -0.13 |
| AGAGCTAG | -0.154 |
| ATACGATC | 0.108 |
| ACAGCAAT | -0.061 |
| GAGCAGCA | 0.0693 |
| CCGTTCCC | -0.017 |
| AAAGAATC | 0.137 |
| GATCTGCC | -0.014 |
| GAGGCGTA | -0.197 |
| CGTGCTAG | -0.199 |
| AGTAGCTG | 0.255 |
| AACTATAT | 0.0836 |
| GCGATTAA | 0.0139 |
| CGTGTCAA | -0.109 |

| Sequence | PBM E-score |
| --- | --- |
| CAGTCCCG | -0.103 |
| AGCTTGAA | -0.218 |
| GAACTAAA | 0.105 |
| TCAGACCA | -0.0609 |
| ACCATTTG | 0.0682 |
| AAGATTTC | 0.0455 |
| ATCATCTG | 0.067 |
| GGAGCGCA | -0.066 |
| CAAGTTAC | 0.0552 |
| CCTTTCAG | -0.117 |
| CCTTATGA | 0.0451 |
| CAATACCG | -0.0222 |
| CGTGAGCA | 0.0225 |
| GACAGTGC | -0.132 |
| ACTTCTCA | 0.0468 |
| AGTGCGTA | -0.143 |
| ACCACGTA | -0.12 |
| GAAGGATC | -0.104 |
| CGAGGAAG | -0.00784 |
| ATAGGCGG | 0.00295 |
